# Measurements: PubChem BioAssay AID1454 (National Center for Advancing Translational Sciences (NCATS), 2008)
# The whole screen tested about 130,000 compounds, of which about 550 (0.42%) were called active. The inconclusive results got no clear call from the source; some entries with a clear call stand among them for comparison. Calls follow the shape of the dose curve; as a rule, active = well fitted inhibition curve with a large enough effect; inconclusive = small, poorly fitted or top-dose-only effect, or effect the other way; inactive = flat fitted curve, though single readings scatter. No potency is given beside an inconclusive call; the fits are too rough.
# Experiment: qHTS Assay for Inhibitors of the ERK Signaling Pathway using a Homogeneous Screening Assay; Stimulation with EGF; also: nearly all actives have a fitted effect of over 55% in size
# Settings: HEK293-V1b, EGF-stimulated phospho-ERK AlphaScreen
# Source text: NIH Chemical Genomics Center [NCGC]
# NIH Molecular Libraries Screening Centers Network [MLSCN]
# Assay Submitter (PI): Dr. Wei Zheng, NCGC/NIH
# The Ras/extracellular-signal-regulated kinase (ERK) mitogen activated protein (MAP) kinase signaling pathway (ERK1/2 cascade) plays a key role in transmitting signals from the cell surface to the nucleus (Nishida and Gotoh 1993; Chang and Karin, 2001). The cascade is initiated by the small G-protein Ras, which recruits Raf from the cytosol, where activation occurs. Alternatively, this pathway can be activated by elevating intracellular cAMP, or by activation of a receptor tyrosine kinase as epidermal growth factor receptor.
# Activation of the ERK pathway is essential in increased cell division and cell survival. Sustained and constitutive activation of the ERK pathway, however, has been linked to uncontrolled cell proliferation, increased cell survival, and tumor progression. Thus, the ERK has been as an attractive target for cancer chemotherapy in the past few years (Sebolt-Leopold and Herrera, 2004). Given its physiological and pathological importance, assessment of ERK phosphorylation has been broadly performed in both basic research and drug discovery. Most assays for the measurement of ERK phosphorylation use the antibody-based detection methods, such as western blot and ELISA. These assays require multiple reagent additions with cell wash steps and are not suitable for high throughout screening.
# The current cell-based ERK phosphorylation assay was performed using AlphaScreen platform. AlphaScreen is a two bead-based proximity-dependent chemical energy transfer luminescent assay platform. The assay reagents (ERK SureFire(TM) kit) were supplied from TGR BioSciences (Australia). In the presence of specific antibodies, phosphorylated ERK will bring "donor" and "acceptor" beads to a proximity range (<200 nm), and subsequently lead a chemical luminescent reaction upon exciting donor beads with 680 nm laser. To exclude the assay-related false positives, we used a biotinylated rabbit IgG to perform counter-screen. The biotinylated antibody mimics the phosphorylated ERK1/2 for bringing streptavidin coated beads and protein-A coated beads to a proximity range for the AlphaScreen detection.
# NCGC Assay Protocol Summary:
# HEK293 cells stably expressing type-1 vasopressin receptor (V1b) were maintained in DMEM medium (Invitrogen, Carlsbad, CA) at 37C under a humidified atmosphere containing 5% CO2 and 95% air. The medium contained 10% FBS, 2 mM L-glutamine, non-essential amino acid, pyruvate and 50 U/ml penicillin and 50 ug/ml streptomycin (Invitrogen). The aliquots of frozen cells were stored at -135C and used for the compound screening. All compounds were screened as titrations from 0.6 nM to 46 uM final concentration. Epidermal growth factor (EGF) was used to stimulate the ERK phosphorylation pathway. The ERK phosphorylation in cells was determined using an AlphaScreen assay kit provided by […]. Data were normalized to the controls for basal activity (DMSO only) and 100% activation (25 nM EGF). AC50 values were determined from concentration-response data modeled with the standard Hill equation.
# (1) Seed 4 ul/well of resuspended frozen HEK293 cells containing 2000 cells in white 1536-well plates for overnight with 1% FBS at 37C under a humidified atmosphere containing 5% CO2 and 95% air.
# (2) Add 23 nL compounds in DMSO solution. The final titration was 0.6 nM to 46 uM.
# (3) Incubate at 37C for 30 min.
# (4) Dispense 0.5uL EGF (25 nM in final)
# (5) Incubate at 37C for 5 min.
# (6) Dispense 0.5uL of 1:2 diluted 5x lysis buffer.
# (7) Incubate at 37C for 10 min.
# (8) Dispense 1.5uL of mixture of activation buffer and reaction buffer with AlphaScreen beads (streptavidin donor beads and protein-A acceptor beads, 10 ng/well for each).
# (9) Incubate at room temperature for 5 hr.
# (10) Detect the assay plate in an EnVision plate reader (PerkinElmer) using the AlphaScreen detection mode.
# […]
# Potency is read from the fitted curve at half-maximal effect; tags tell the direction and shape of the fitted curve.
row,SMILES,Potency
1,CO/N=C/CC(=O)c1ccc(-c2ccccc2)cc1,"inconclusive [inhibitor, partial curve, poor fit]"
2,CCC1(C)Cc2nc3[nH]c(=S)n(-c4ccc(C)cc4)c(=O)c3cc2CO1 (stereo not drawn),inactive
3,C/C(CS(=O)(=O)c1ccc(Cl)c(Cl)c1)=N/NC(N)=S,"inconclusive [activator, full curve, poor fit]"
4,O=C(O)c1ccc(N2C(=O)/C(=C/c3ccc(-c4ccc([N+](=O)[O-])cc4)o3)C=C2c2ccccc2)cc1,"inconclusive [inhibitor, single point]"
5,c1ccc(Nc2nc3ccccc3n3cnnc23)cc1,"inconclusive [activator, full curve, poor fit]"
6,COc1ccc(CC(N)C(=O)NC2C(CO)OC(n3cnc4c(N(C)C)ncnc43)C2O)cc1 (stereo not drawn),inactive
7,Cc1ccc(/C=C2\SC(=S)N(/N=C/c3cc([N+](=O)[O-])ccc3O)C2=O)o1,"inconclusive [inhibitor, partial curve]"
8,COc1ccc(N2CCN(C(=O)CCCCn3c(=O)[nH]c4ccsc4c3=O)CC2)cc1,"inconclusive [inhibitor, partial curve]"
9,O=C(N/N=C/c1ccc(-c2ccccc2[N+](=O)[O-])o1)[C@H]1C[C@@H]1c1ccccc1,"inconclusive [inhibitor, single point]"
10,Cc1ccc2cc(CCNC(=O)c3cc4ccccc4o3)c(=O)[nH]c2c1C,active: 31.6 µM
11,CC(=O)N1CCN(c2ccc(NC(=S)NC(=O)c3ccc(C)c([N+](=O)[O-])c3)cc2)CC1,"inconclusive [inhibitor, single point]"
12,CC(=O)Nc1ccc(NC(=O)COC(=O)C2(c3ccc(Cl)cc3)CCCC2)cc1,"inconclusive [inhibitor, single point]"
13,CC(C)C[C@@H]1NC(=O)[C@H](Cc2ccc(O)cc2)NC(=O)[C@H](CCC(N)=O)NC(=O)c2cc([N+](=O)[O-])cc(I)c2NCC[C@@H](C(N)=O)NC1=O,"inconclusive [inhibitor, partial curve]"
14,O=C(Nc1cccc(S(=O)(=O)N2CCCCC2)c1)c1ccc(OCC2CCCO2)cc1 (stereo not drawn),"inconclusive [inhibitor, partial curve]"
15,COc1cccc(-c2cc(C(F)(F)F)n3nc(C(=O)N4CCCCC4c4cccnc4)cc3n2)c1 (stereo not drawn),"inconclusive [inhibitor, single point]"
16,C=CCc1ccc2oc(C(=O)OCC)cc(=O)c2c1O,"inconclusive [inhibitor, single point]"
17,CCOC(=O)C1=C(O)C(=O)N(c2ccc(S(N)(=O)=O)cc2)C1c1cccc([N+](=O)[O-])c1 (stereo not drawn),"inconclusive [inhibitor, full curve, poor fit]"
18,COc1ccc(NC(=O)c2c(Cl)nc3ccccn23)cc1,"inconclusive [inhibitor, single point]"
19,c1ccc(Oc2c3ccccc3nc3ccccc23)cc1,inactive
20,COCCCN1C(=O)C(=O)/C(=C(/O)c2ccc3c(c2)CC(C)O3)C1c1cccnc1 (stereo not drawn),"inconclusive [activator, full curve, poor fit]"
21,COc1cc2ncnc(NCc3ccccc3Cl)c2cc1OC,active: 1.26 µM

row,SMILES,Potency
1,COc1ccc(-c2csc(NC(=O)c3ccc(N4C(=O)CCC4=O)cc3)n2)cc1,"inconclusive [inhibitor, partial curve]"
2,O=C(Nc1ccc([N+](=O)[O-])cc1)Nc1ccc(N2CCOCC2)c2nonc12,"inconclusive [inhibitor, full curve, poor fit]"
3,COc1ccc(/C=N/N2CCN(C3c4ccccc4-c4ccccc43)CC2)cc1OC,"inconclusive [activator, full curve, poor fit]"
4,Nc1cccc2c1C(=O)N(Cc1cccc(Cl)c1)C2=O,"inconclusive [activator, partial curve, poor fit]"
5,C=CC[n+]1c(-c2ccc(Cl)cc2Cl)csc1Nc1c(C)n(C)n(-c2ccccc2)c1=O,"inconclusive [inhibitor, partial curve]"
6,CN(C)c1ccc(/C=C/C(=O)c2cc(Cl)ccc2O)cc1,active: 14.1 µM
7,CCCCNC(=S)N(C)/N=C/c1sc(N2CCCCC2)nc1-c1cccs1,"inconclusive [activator, partial curve]"
8,O=c1oc2ccc(Cl)cc2nc1/C=C(\O)c1ccco1,"inconclusive [inhibitor, partial curve]"
9,O=C(c1csnn1)N1CCC[C@@]2(CCN(C(c3ccccc3)c3ccccc3)C2)C1,inactive
10,O=C(CCC1CCCC1)Nc1nnc(-c2ccc3c(c2)OCO3)s1,"inconclusive [inhibitor, single point]"
11,CCN1/C(=C/c2ccc3cc(C)cc(C)c3[n+]2CC)Sc2cc(C)ccc21,"inconclusive [inhibitor, partial curve]"
12,CN(C)S(=O)(=O)c1cccc(NC(=S)N/N=C/c2cc(Br)ccc2O)c1,"inconclusive [inhibitor, single point]"
13,CCc1ccc(S(=O)(=O)/N=C2/C=C(Sc3ncn[nH]3)C(=O)c3ccccc32)cc1,"inconclusive [inhibitor, single point]"
14,Cc1ccc(F)c([C@H]2[C@H]3C=CC[C@@H](C)[C@@H]3C(=O)N2Cc2ccccc2)c1,inactive
15,CCCCCCN(C(=O)CCCCCN1C(=O)NC(c2ccc3ccccc3c2)C(C(=O)OCc2ccccc2)=C1C)C(C(=O)NCCCC)c1ccc(OCC(=O)OC)c(C(=O)OC)c1 (stereo not drawn),inactive
16,C(=C\c1nccc2c1[nH]c1ccccc12)/c1ccccc1,"inconclusive [inhibitor, single point]"
17,Cc1cc(C)c2nc(NCCCNC(=S)NCCCN(C)C)c(C#N)cc2c1,"inconclusive [inhibitor, single point]"
18,CCN(CC)CCSc1nnc2c3cc(C)ccc3n(Cc3ccccc3)c2n1,"inconclusive [inhibitor, partial curve]"
19,COc1cc2c(cc1OC)C(c1c[nH]c3ccccc13)NCC2 (stereo not drawn),inactive
20,Cc1ccccc1Nc1c(-c2cccnc2)nc2cccc(C)n12,"inconclusive [inhibitor, single point]"
21,Cc1ncsc1CCOC(=O)c1ccc(N2CCOCC2)c([N+](=O)[O-])c1,"inconclusive [inhibitor, partial curve]"

row,SMILES,Potency
1,CC(C)=CCc1c(O)c(CC=C(C)C)c2occ(-c3ccc(O)cc3)c(=O)c2c1O,"inconclusive [inhibitor, partial curve]"
2,O=C(CCCn1c(=O)[nH]c2cc(Cl)ccc2c1=O)NCCN1CCN(c2ccccc2)CC1,"inconclusive [inhibitor, single point]"
3,O=C(CSCc1ccc(Cl)cc1)N1CCN(Cc2ccc3c(c2)OCO3)CC1,"inconclusive [inhibitor, single point]"
4,CCc1cc(=O)oc2cc3occ(-c4ccc(OC)c(F)c4)c3cc12,"inconclusive [inhibitor, single point]"
5,O=C(NC1CCCCC1)C(c1ccc(F)cc1)N(Cc1ccco1)C(=O)CN1C(=O)c2ccccc2S1(=O)=O (stereo not drawn),inactive
6,Cc1nnc(Sc2cc(NCCO)c([N+](=O)[O-])c3nonc23)s1,inactive
7,Brc1ccc2ncc(Br)cc2c1,inactive
8,COc1cccc(C(=O)Nc2ccc3nc(N4CCN(c5ncccn5)CC4)cc(C)c3c2)c1OC,"inconclusive [inhibitor, partial curve]"
9,CCc1cc2c(=O)c(-c3nc4ccccc4[nH]3)coc2c(CN2CCCCC2C)c1O (stereo not drawn),inactive
10,CCN(CC)C(=O)c1cc([N+](=O)[O-])cc2c1-c1ccc([N+](=O)[O-])cc1C2=C(C#N)C#N,"inconclusive [inhibitor, single point]"
11,Cc1ccc2[nH]c(=O)c(CN(C(=O)c3cccs3)c3ccccc3)cc2c1,"inconclusive [activator, full curve, poor fit]"
12,COc1ccc(C(=O)C2CCCN(Cc3cccn3-c3nccs3)C2)cc1OC (stereo not drawn),"inconclusive [inhibitor, partial curve, poor fit]"
13,CN(c1ccccc1)S(=O)(=O)c1ccc(Cl)c(C(=O)Nc2ccc(N3CCOCC3)cc2)c1,"inconclusive [inhibitor, single point]"
14,CC(C)NC(=O)c1cnn2c1NC(c1cccs1)CC2C(F)(F)F (stereo not drawn),inactive
15,Cc1ccc(C)c(NC(=O)c2ccccc2Sc2ccc([N+](=O)[O-])cc2Cl)c1,inactive
16,Cc1cc(OC(F)F)ccc1NC(=O)Nc1ccc([N+](=O)[O-])cc1,"inconclusive [inhibitor, partial curve]"
17,CC(C)(C)Nc1oc(-c2ccccc2)nc1-c1cccc2ccccc12,inactive
18,COc1ccc(C2Nc3cc(OC)ccc3-n3cccc32)cc1 (stereo not drawn),"inconclusive [activator, single point]"
19,CN(C)CCCC1(c2ccc(F)cc2)OCc2cc(C#N)ccc21 (stereo not drawn),"inconclusive [inhibitor, single point]"
20,CC1=NN(c2ccccc2)C(=O)/C1=C\c1cc(C)n(C)c1C,"inconclusive [inhibitor, single point]"
21,O=C(NCc1ccncc1)C(=O)Nc1nccs1,inactive
